These results are taken from publication PMC12136788.

The list shows a part of the results.

The chains are these.
B1: chr3:133545784:133545785:-_ENSG00000154917_ENST00000285208|hu_hu|motif|central (ssRNA)
RNA: GGGAGUUCUACAGUCCGACGAUCGCACAUGUAUCUCCGUGAGGAUGUGUUUGUGGAAGGUGUAUACACAAGUCUAUCUCGGUAUAUAAUUAUGUACACACAUAUAAAAACUAAACACAUGACAUCUGAAACACGUUCAAACAUCAACAGAGGAUUGAGCAUCA
B2: 31463449_31463569_8093_3pUTR_ENSMUSG00000025609_ENSMUST00000026699|mouse|control|control (ssRNA)
RNA: GGGAGUUCUACAGUCCGACGAUCACCUGUAGACUUAUUCUAGGUUAACAAUGGAGAGCUUUUUGCCGUGCUUAGCUUUGGGAACAUGCACUAGCUCACGCUCAUUCUUCGUUGUAGUCAGAAUUCUUGGGUCAGUGCACACGCCAACAGAGGAUUGAGCAUCA
B3: 8067981_8069192_916_CDS_ENSMUSG00000022142_ENSMUST00000163765|mouse|control|control (ssRNA)
RNA: GGGAGUUCUACAGUCCGACGAUCUUGAACAAUAGGAUCAUCUUCUGAGAACGUGAACUGCAGCAAGGAAGGCACCAGGAAGGAGAGCGAGCUCUUGGAGUGAUUGAUCUUCCUACAUCUUUGACUGAACCAGCCUGCUUCUGCCAACAGAGGAUUGAGCAUCA
B4: chr13:100193533:100193534:-_ENSMUSG00000052727_ENSMUST00000064762|mus_hu|FALSE|FALSE (ssRNA)
RNA: GGGAGUUCUACAGUCCGACGAUCUUAAACAUUUGAAAAAUGUAAUUCACAGCAUUAAGUAGACUGCAUAGGUCCUCAGUGAAAGGACCCUGAAGAAGCAUUUUUUUAAACCCUCAUCAUAGUUAGCAGUGCAAAACAUAGACUCAACAGAGGAUUGAGCAUCA
B5: chr2:78760142:78760143:+_ENSMUSG00000027011_ENSMUST00000028398|mus_mus|FALSE|FALSE (ssRNA)
RNA: GGGAGUUCUACAGUCCGACGAUCGGUCCACUGUCUGGCUAUCCUGUCAUGUUCUGCUCUGUUGGUCAAAUACUGAGUGGCUAUGCUUCCGACCAGAGGAUCCGCAGGGUUGCAAUCUGUCAAAAGGGAACAAAUAGAGAGCAACAACAGAGGAUUGAGCAUCA
B6: 18624260_18624514_661_CDS_ENSMUSG00000072214_ENSMUST00000096987|mouse|control|control (ssRNA)
RNA: GGGAGUUCUACAGUCCGACGAUCAAACUGGUACACGUGGAUCCCAAACUUGUCGAUCUCCUCACGUAUUCUGUCCUUCAGCUUCCGGAUCUCACUGGGCACCAGGCAGUCAGCUUUGGCGAUGAGUGGGACGAUGUUCACCUUCAACAGAGGAUUGAGCAUCA
B7: chr5:128448638:128448639:+_ENSG00000066583_ENST00000173527|hu_mus|FALSE|FALSE (ssRNA)
RNA: GGGAGUUCUACAGUCCGACGAUCGGCACUCGCCUUAAUUAGGUUCUGAAUUUCCUUGAACUUCGGGUGGUCUUUGUCAGCCACCAGCUGUAGGAGGACAGCCUCACUAGUGGUCACGAUGAUCCCAGUGCGGGCAAGACGCUCCAACAGAGGAUUGAGCAUCA
B8: chr3:176767854:176767855:-_ENSG00000177565_ENST00000430069|hu_hu|hu_hu_hu_mus_False|28_78 (ssRNA)
RNA: GGGAGUUCUACAGUCCGACGAUCGACAUCCUUGUUACUGGGCACGUCCUGCCCUCCUUCUCGUAUACAGUGUCUAAGCACGAGCUGCGUAGGGCCACUCGUGCUGUUCUCACUAAGGUUCCAGAUUCUUGCCGUGGAGUCUCCCAACAGAGGAUUGAGCAUCA
B9: chr5:10263280:10263281:+_ENSG00000150753_ENST00000503026|hu_hu|motif|central (ssRNA)
RNA: GGGAGUUCUACAGUCCGACGAUCGAGGGCCAUGGGGAUGACCUCCAGUGCGUCGGCAAACGCUCUCAUGGCAUACUGUUCGGAGGUGGGGCACUUAUCCGCCUCUUGGCUAACUGCCAGGGCACAGGAUAUCUCAGCAGCCCCCAACAGAGGAUUGAGCAUCA
B10: 120789170_120789290_320_CDS_ENSMUSG00000027272_ENSMUST00000028728|mouse|control|control (ssRNA)
RNA: GGGAGUUCUACAGUCCGACGAUCUUUCUCUAAGCAAAUAUCCGGAUCCUCUCCAAAUAAGUACCACUCCAAAGGAGUGAGUAUUGACAUCUGUACACUCUCUUCUUGCUUUUCCAAAUCUGGGUCCAUCUCAGCAAAAUAAAUCAACAGAGGAUUGAGCAUCA
B11: chr3:100058692:100058693:+_ENSG00000114021_ENST00000480073|hu_mus|FALSE|FALSE (ssRNA)
RNA: GGGAGUUCUACAGUCCGACGAUCAUAGUCAGGAAAGUAGGUUGUUCCAUAUGGAGAAUUGAAGCACUCAGGCAGAGAAACUAUGUUGGCACCUUGCUUUGCUGCCUCCCGCACUAGGCUACAAGCCCGGGUAAGGUUAUCUGACAACAGAGGAUUGAGCAUCA
B12: 66472166_66472286_2592_CDS_ENSG00000173898_ENST00000309996|human|control|control (ssRNA)
RNA: GGGAGUUCUACAGUCCGACGAUCCUCGCUGAGCAUGGUGUAGAGCGCCAGGGCUGCCUCCAAGGCCCGCGCUCGCUCGCCUGCCCGGGCCUGCAGCUCCUCGUAGUGCCGCUCCAGGGUGGGCACCCGGCUCUGCACCUCGGGCAACAGAGGAUUGAGCAUCA
B13: chrX:140365796:140365797:-_ENSMUSG00000031285_ENSMUST00000033642|mus_mus|mus_mus_mus_hu_False|18_38 (ssRNA)
RNA: GGGAGUUCUACAGUCCGACGAUCCUUCUCAUUACUCAGUGCCUGCAAGGUUCUGGUUCGGUAGAAGCUACAGUGGGCGCUGUGAGUGGGGCUAGGCAGUCCAUUCAUCCGGGAGCCUCUCAUAUUUCUGGAUGUCUUAUCUCUCAACAGAGGAUUGAGCAUCA
B14: chr22:32894248:32894249:+_ENSG00000100225_ENST00000397426|hu_hu|motif|central (ssRNA)
RNA: GGGAGUUCUACAGUCCGACGAUCGGGAAGUGUUGGUCUUUGGUCAUAUUCACCCCCGAUAAUUCCUGGAGGAAGGCGGGAGCGGGGAAAUGGCCUAGGGUGCAAGGGGUUGGGAUAGAAUGGAAUGGUGUGAGUUGACGAUGGCAACAGAGGAUUGAGCAUCA
B15: chr1:214814342:214814343:+_ENSG00000117724_ENST00000366955|hu_hu|FALSE|FALSE (ssRNA)
RNA: GGGAGUUCUACAGUCCGACGAUCGGCACUUAAGGUUUCAGCAACAACAUUCUGGUGAGCAGAAGUGUCUUCCUGUAACUUACUAAUGCGCUGACUUGUUUCAGCCACAAAACUUUGAUGCAUCUGUUCUGCUUUCAUGAGAUUCAACAGAGGAUUGAGCAUCA
B16: chr5:119214657:119214658:+_ENSMUSG00000018076_ENSMUST00000100816|mus_hu|FALSE|FALSE (ssRNA)
RNA: GGGAGUUCUACAGUCCGACGAUCUUUUAAAGUUUUUUUGUAGGGGUUUUUUAUUUUUUGUGUUUUUUUUCUUUUUCUGCUUAGAAUUGGGUUUCUAGGGAAGAAAAGCCCCUGCAUUAAAAACAGCCCAUUUAAAAAAAAAAUCAACAGAGGAUUGAGCAUCA
B17: chr3:176740097:176740098:-_ENSG00000177565_ENST00000430069|hu_mus|hu_hu_hu_mus_True|68_108 (ssRNA)
RNA: GGGAGUUCUACAGUCCGACGAUCUGUUUUUUACACCACAAAAGGAGGCACUUUCAGUAUCUGCAAAAGGUAUUUAAUCCUAAAACAUACUCACCUAGAGGAUAACUCAGGAAAACAAUCUGUUACACUCUAAGACCUACUCCACAACAGAGGAUUGAGCAUCA
B18: chrX:12717583:12717584:+_ENSMUSG00000031010_ENSMUST00000089302|mus_hu|FALSE|FALSE (ssRNA)
RNA: GGGAGUUCUACAGUCCGACGAUCUUCAGCAUUGGGUACAUUAAUAUUACUAUUGUAAGCGUAAUUAAGAAGGUGUCUUAAAAGAGUAAAGUAGUCGCCUGAGUGUUUAGCUCUCUCUCUUGCUGUGCUCCCCAAAACAGUAAACAACAGAGGAUUGAGCAUCA
B19: chr7:75932113:75932114:+_ENSG00000106211_ENST00000248553|hu_hu|hu_hu_hu_mus_False|8_28 (ssRNA)
RNA: GGGAGUUCUACAGUCCGACGAUCCUGCGACCACUCAUCGGGCAACCGGGGCACCCCGAAAGCUUGAUCGAAGAGGCGGCUGUGUGCAGGGUACCAGUCCCGGAAUGCCCAGCUGGGCGGGCUCCGCAGCGAGAAGGAGGGCACCAACAGAGGAUUGAGCAUCA
B20: chr15:59961163:59961164:-_ENSG00000140299_ENST00000607373|hu_hu|FALSE|FALSE (ssRNA)
RNA: GGGAGUUCUACAGUCCGACGAUCGCCAACGUAUUCCAUGGGGACAAGUUCUGCUAGUUCUGCCAAAUUAAACACGUAUCUAAUUUUUUGGCUGAAUUUCGAGCUAAUAAAUGGUCUUGUAACAGCCAGAAGUGUUCUGAUAAACAACAGAGGAUUGAGCAUCA
B21: chr7:141445308:141445309:+_ENSG00000106028_ENST00000265304|hu_hu|motif|central (ssRNA)
RNA: GGGAGUUCUACAGUCCGACGAUCUAUGAUUGUUGUUGCUUGUCGCCUCACAUUAUUUUUAUCCAUGUAUUCACCAUAGUCGGUUUUCCCUUCCAAAUAAAUUCGAGACCCCUUUUUCACAUAUUGAUAUGCCACGUCUCUGAGCAACAGAGGAUUGAGCAUCA
B22: chr6:48548902:48548903:+_ENSMUSG00000052751_ENSMUST00000163452|mus_mus|motif|central (ssRNA)
RNA: GGGAGUUCUACAGUCCGACGAUCAAGGAACAAAACAAGACCCAGUAGGCAGAAGUCAUAGGAAAGCAGAAUCCAAUCACGGUAAGUAAGAAAUGUCUAACAAUUAGACUCGCCCUACGAUAGAAGUAGUGCCUUCUGGAGGUACAACAGAGGAUUGAGCAUCA

The target in the experiment is T1, UNK ZnF1-3 (human, UniProt Q9C0B0 31-174).
T1 sequence: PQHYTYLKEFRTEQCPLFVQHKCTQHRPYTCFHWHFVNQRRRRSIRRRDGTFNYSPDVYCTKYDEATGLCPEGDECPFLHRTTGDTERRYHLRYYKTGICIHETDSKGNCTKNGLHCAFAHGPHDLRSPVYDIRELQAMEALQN
Nature of the experiment: nsRBNS (natural sequence RNA bind-n-seq); RBNS binding buffer (assumed for nsRBNS): 25 mM Tris pH 7.5, 150 mM KCl, 3 mM MgCl2, 0.01% Triton X-100, 500 ug/ml BSA, 20 U/ml SUPERase-In, 4 C; UNK is unkempt and MSI1 is Musashi-1; names of the RNAs are library labels; protein concentration not given here; high values mean tight binding.
B1 displayed a binding signal of 0.904 enrichment R.

B2 showed a binding signal of 0.334 enrichment R.

For B3, the binding signal was found to be 1.45 enrichment R.

For the molecule B4, the binding signal came out at 0.544 enrichment R.

Molecule B5 yielded a binding signal of 1.58 enrichment R.

B6 displayed a binding signal of 0.71 enrichment R.

B7 showed a binding signal of 0.754 enrichment R.

As for B8, the binding signal was 0.391 enrichment R.

For the molecule B9, the binding signal stood at 0.896 enrichment R.

B10 yielded a binding signal of 1.13 enrichment R.

For the molecule B11, the binding signal is 1.37 enrichment R.

B12 registered a binding signal of 0.291 enrichment R.

The molecule B13 displayed a binding signal of 0.596 enrichment R.

For B14, the binding signal was 1.07 enrichment R.

In turn, B15 registered a binding signal of 0.92 enrichment R.

B16 yielded a binding signal of 0.406 enrichment R.

B17: the binding signal amounted to 0.907 enrichment R.

With B18, the binding signal turned out to be 1.01 enrichment R.

Consider B19, for which the binding signal was 0.855 enrichment R.

Take B20: the binding signal stood at 1.27 enrichment R.

As to B21, the binding signal is 0.521 enrichment R.

Molecule B22 returned a binding signal of 2.07 enrichment R.
